Experimental findings from US20140178935A1 (AVEO PHARMACEUTICALS, published 2014) are described below.

As a reminder, the Kd is a measure of binding affinity in units of concentration. One may read the koff as the first-order rate constant of dissociation. In general, kon refers to the second-order rate constant of association. As usually defined, the IC50 is the point on the concentration scale where inhibition reaches its midpoint.

For test [1], the target named is T1, recombinant human HGF (R&D Systems, Catalog No. 294-HGN-025) (human, UniProt P14210 32-728).
T1 construct: Mature HGF is a disulfide-linked heterodimer of alpha and beta chain cut from one precursor; also called rhHGF (R&D Systems); rhHGF
Nature of the test: SPR, captured antibody, HGF injected, 25 C. The protocol: (§1) Mouse anti-human immunoglobulins (Jackson Labs, Catalog No. 209-005) or rabbit anti-mouse immunoglobulins (BIAcore, Catalog No. BR-1005-14) were immobilized on carboxymethylated dextran CM4 sensor chips (BIAcore, Catalog No. BR-1006-68) by amine coupling (BIAcore, Catalog No. BR-1000-50) using a standard coupling protocol according to manufacturer's instructions. […] The analyses were performed at 25° C. and 37° C. using PBS (GIBCO, Catalog No. 14040-133) containing 0.05% surfactant P20 (BIAcore, Catalog No. BR-1000-54), and 2 mg/mL BSA (EMD, Catalog No. 2930) as running buffer.
(§2) The antibodies were captured in an individual flow cell at a flow rate of […]. Injection time was variable for each antibody to yield approximately 20 RU of antibody captured for each cycle. […] The dissociation phase was monitored for 15 or 90 minutes, depending on concentration. The surface of mouse anti-human immunoglobulins sensor chips was then regenerated with 10 mM Glycine-HCl, pH 2.2 (BIAcore, Catalog No. BR-1003-54) injected for 3 minutes at a flow rate of 60 μL/min before another cycle was initiated. The surface of rabbit anti-mouse immunoglobulins sensor chips was regenerated with 10 mM Glycine-HCl, pH 1.7 (BIAcore, Catalog No. BR-1003-54) injected for 3 minutes at a flow rate of 60 μL/min before another cycle was initiated.
(§3) Kinetic parameters were determined using the kinetic function of the BIAevaluation software with reference subtraction.
Background: SPR reads the build-up and loss of mass on a sensor chip optically.

The target in test [2] is T1, recombinant human HGF (R&D Systems, …). As to the kind of experiment: SPR, captured antibody, HGF injected, 25 C. The protocol:
Mouse anti-human immunoglobulins (Jackson Labs, Catalog No. 209-005) were immobilized on carboxymethylated dextran CM4 sensor chips (BIAcore, Catalog No. BR-1006-68) by amine coupling (BIAcore, Catalog No. BR-1000-50) using a standard coupling protocol according to manufacturer's instructions. The analyses were performed at 25° C. using PBS (GIBCO, Catalog No. 14040-133) containing 0.05% surfactant P20 (BIAcore, Catalog No. BR-1000-54), and 2 mg/mL BSA (EMD, Catalog No. 2930).
The antibodies were captured in an individual flow cell at a flow rate of 10 μL/min. Injection time was variable for each antibody to yield approximately 20 RU of antibody captured for each cycle. […] The dissociation phase was monitored for 15 or 90 minutes, depending on concentration. The surface then was regenerated with 10 mM Glycine-HCl, pH 2.2 (BIAcore, Catalog No. BR-1003-54) injected for 3 minutes at a flow rate of 60 μL/min before another cycle was initiated.
Kinetic parameters were determined using the kinetic function of the BIAevalutation™ software with reference subtraction.
The source holds these as a separate data set.

Test [3] has as its target T2, recombinant mhm chimeric HGF protein containing the region I499-R556 of hHGF disposed between murine sequences (mouse-human-mouse chimera, UniProt Q08048 56-728).
T2 construct: also called mhm chimera (I499-R556)
T2 chain: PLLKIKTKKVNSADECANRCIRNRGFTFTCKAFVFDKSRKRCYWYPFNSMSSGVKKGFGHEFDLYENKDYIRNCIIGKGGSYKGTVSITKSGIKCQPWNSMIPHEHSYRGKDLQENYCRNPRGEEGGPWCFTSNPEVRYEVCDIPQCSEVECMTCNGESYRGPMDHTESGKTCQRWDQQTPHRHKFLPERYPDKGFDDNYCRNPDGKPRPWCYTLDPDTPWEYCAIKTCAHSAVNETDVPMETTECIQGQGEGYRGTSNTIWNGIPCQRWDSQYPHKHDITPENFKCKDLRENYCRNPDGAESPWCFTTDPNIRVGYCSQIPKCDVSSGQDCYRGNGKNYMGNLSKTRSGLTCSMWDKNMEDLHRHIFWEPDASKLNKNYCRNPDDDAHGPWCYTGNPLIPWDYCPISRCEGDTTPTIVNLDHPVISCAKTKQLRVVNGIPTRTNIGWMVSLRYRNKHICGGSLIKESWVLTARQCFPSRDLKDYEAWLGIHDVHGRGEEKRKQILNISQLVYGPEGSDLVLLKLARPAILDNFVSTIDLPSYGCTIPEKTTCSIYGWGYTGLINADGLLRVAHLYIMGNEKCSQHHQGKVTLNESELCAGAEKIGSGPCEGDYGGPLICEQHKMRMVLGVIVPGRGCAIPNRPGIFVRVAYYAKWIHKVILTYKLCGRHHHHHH
Nature of the test: SPR, antibody immobilized, HGF protein injected, 25 C. On the procedure: (§4) Analyses were performed at 25° C. using PBS (GIBCO, Catalog No. 14040-133) containing 0.05% surfactant P20 (BIAcore, Catalog No. R-1000-54), 2 mg/mL BSA (EMD, Catalog No. 2930) and 10 mg/mL CM-Dextran Sodium salt (Fluka, Catalog No. 86524) as running buffer. […] The resulting binding was determined as resonance units (RU) over baseline 30 seconds after the end of injection. […] Non-specific binding was monitored by comparing binding to a control surface.

For test [4], the target named is T3, recombinant mhm chimeric HGF protein containing human W507-L585 HGF sequence disposed within mouse HGF … (mouse-human-mouse chimera, UniProt Q08048 56-728).
T3 construct: CHO supernatant; also called mhm chimera (W507-L585); MHM chimera (507-585)
T3 chain: T2 chain with R443Q, N445T, I446V, E499D, R502C, I505V, I508V, L523M
The description is as above. The protocol: as §4

Test [5] addresses T4, recombinant mouse HGF (R&D Systems) (mouse, UniProt Q08048 33-728).
T4 construct: Bought protein, construct not described; also called rmHGF (R&D Systems); murine HGF
Described as above. On the procedure:
as §4

The target in test [6] is T1, recombinant human HGF (R&D Systems, …). Nature of the test: competition ELISA (DELFIA): antibody inhibits biotinylated c-Met binding to plate-coated HGF. On the procedure: The plates then were blocked with 200 μL of 5% non-fat dry milk in PBS for 1 hour at room temperature. […] 100 μL of sample per well was transferred to the assay plate and incubated for 2 hours at room temperature. The resulting plates were washed three times with PBS-0.1% Tween 20, and incubated for 1 hour at room temperature with Eu-labeled Streptavidin (Wallac, Catalog No. 1244-360) diluted 1:1000 in DELFIA assay buffer (Wallac, Catalog No. 4002-0010). The resulting plates were washed 3 times with DELFIA wash solution (Wallac, Catalog No. 4010-0010) and incubated with 100 μL/well DELFIA enhancement solution (Wallac #4001-0010) for 15 minutes at room temperature with agitation. The plates were read on Victor³V instrument (Perkin Elmer) using the Europium method. The IC₅₀ values were calculated using Prism.
(In general: An ELISA detects its analyte on a solid surface through an enzyme-linked reagent.)

The target is the same in test [7]. Nature of the test: cell-based or functional assay.
For test [8] the target is unchanged. As to the kind of experiment: SPR, captured antibody, HGF injected, 37 C. On the procedure: as §1, §2, §3
The target is the same in test [9]. As to the kind of experiment: cell-based or functional assay. The source holds these as a separate data set.

Where a chain is given by its changes, count along the chain named.

T1 sequence (P14210 32-728 limits assumed): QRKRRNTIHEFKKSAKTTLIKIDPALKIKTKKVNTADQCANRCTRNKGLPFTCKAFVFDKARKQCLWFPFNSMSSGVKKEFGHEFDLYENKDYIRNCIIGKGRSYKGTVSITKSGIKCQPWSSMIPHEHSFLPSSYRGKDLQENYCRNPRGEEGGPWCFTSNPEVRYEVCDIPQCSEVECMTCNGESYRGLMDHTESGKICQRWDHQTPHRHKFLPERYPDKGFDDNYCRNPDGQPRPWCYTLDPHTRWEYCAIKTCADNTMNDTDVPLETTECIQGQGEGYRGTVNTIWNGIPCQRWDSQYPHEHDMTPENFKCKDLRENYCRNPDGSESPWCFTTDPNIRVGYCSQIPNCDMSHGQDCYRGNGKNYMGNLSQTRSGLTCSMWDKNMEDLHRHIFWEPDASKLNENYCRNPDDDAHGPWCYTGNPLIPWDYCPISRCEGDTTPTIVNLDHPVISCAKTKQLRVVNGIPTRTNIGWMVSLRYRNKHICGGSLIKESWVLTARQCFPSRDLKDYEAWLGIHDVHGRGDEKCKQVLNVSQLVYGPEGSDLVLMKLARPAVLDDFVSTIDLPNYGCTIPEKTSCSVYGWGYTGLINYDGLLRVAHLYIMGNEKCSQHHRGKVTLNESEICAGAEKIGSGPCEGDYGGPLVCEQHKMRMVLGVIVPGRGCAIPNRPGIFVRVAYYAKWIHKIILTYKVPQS

B1: sh2B8-12 (G1m(17,1)) = hu2B8 Hv5-51.1 + IgG1 constant region (G1m(17,1) allotype) plus hu2B8 Kv3-15.1 + Kappa constant region (Km(3) allotype, allele 2) (antibody)
heavy: EVQLVQSGAEVKKPGESLKISCKGSGYSFTTYWMHWVRQMPGKGLEWMGEINPTNGHTNYNPSFQGQVTISADKSISTAYLQWSSLKASDTAMYYCARNYVGSIFDYWGQGTLVTVSS[human IgG1 constant region cut from this listing]
light: EIVMTQSPATLSVSPGERATLSCKASENVVSYVSWYQQKPGQAPRLLIYGASNRNTGIPARFSGSGSGTEFTLTISSLQSEDFAVYYCGQSYNYPYTFGQGTKLEIKRTVAAPSVFIFPPSDEQLKSGTASVVCLLNNFYPREAKVQWKVDNALQSGNSQESVTEQDSKDSTYSLSSTLTLSKADYEKHKVYACEVTHQGLSSPVTKSFNRGEC
With B1, in test [1], the Kd was 0.012 nM, the koff amounted to 2.3e-05 s⁻¹ and the kon amounted to 1.9e+06 M⁻¹ s⁻¹. Further, in [2], the Kd worked out at 0.012 nM, the koff was 2.3e-05 s⁻¹ and the kon worked out at 1.9e+06 M⁻¹ s⁻¹.

B2: sh2B8-12 (G1m(3)) = hu2B8 Hv5-51.1 + IgG1 constant region (G1m(3) allotype, allele 2) plus hu2B8 Kv3-15.1 + Kappa constant region (Km(3) allotype, allele 2) (antibody)
heavy: EVQLVQSGAEVKKPGESLKISCKGSGYSFTTYWMHWVRQMPGKGLEWMGEINPTNGHTNYNPSFQGQVTISADKSISTAYLQWSSLKASDTAMYYCARNYVGSIFDYWGQGTLVTVSSASTKGPSVFPLAPSSKSTSGGTAALGCLVKDYFPEPVTVSWNSGALTSGVHTFPAVLQSSGLYSLSSVVTVPSSSLGTQTYICNVNHKPSNTKVDKRV[human IgG1 Fc cut from this listing]
light: B1 light
notes: Superhumanized 2B8 variant, human IgG1 kappa, made in 293T cells
In the case of B2, the binding result in [3] is given as “binds”; in [4], “binds”; in [5], “no binding”. Further, the IC50 in test [6] was found to be 6.8 nM. Also, the “IC50, neutralization of HGF stimulated BrdU incorporation in 4 MBr-5 cells” value in [7] was 0.81 nM. In test [8], the Kd is 0.0048 nM. In test [8], the koff came out at 1.1e-05 s⁻¹. In addition, the kon in test [8] amounted to 2.4e+06 M⁻¹ s⁻¹. In addition, the “EC50, inhibition of HGF-stimulated c-Met phosphorylation in PC-3 cells, Average of Two Trials” value in test [9] was found to be 0.81 nM.
